This is an account of results in a collection of fitness landscapes (doi:10.1016/j.celrep.2020.107928).

The full ranking holds about 81,000 sequences; the median of “one-hybrid fitness for binding NBS DNA” is about -0.1, and the highest 2% start at about 0.36. The list shows a part of the results. Where only a bound is given, the exact number is not on record here.

B1: Caulobacter ParB omega fusion; a variant is named by its letters at X, in order, B8GW30 (parent)
chain: MESVVVGEPGMSEGRRGLGRGLSALLGEVDAAPAQAPGEQLGGSREAPIEILQRNPDQPRRTFREEDLEDLSNSIREKGVLQPILVRPSPDTAGEYQIVAGERAWRAAQRAGLKTVPIMVRELDDLAVLEIGIIENVQRADLNVLEEALSYKVLMEKFERTQENIAQTIGKSXSHVANXMRLLXLPDEVQSYLVSGELTAXHARAIAAAADPVALAKQIIEGGLSVRETEALARKAPNLSAGKSKGGRPPRVKDTDTQALESDLSSVLGLDVSIDHRGSTGTLTITYATLEQLDDLCNRLTRGI

In the test the parent is B1. Description: one-hybrid fitness for binding NBS DNA (the Noc-binding site; scaled: cognate 1, non-cognate 0); higher = stronger binding. The note with it: with NBS DNA site. In outline:
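Pre- and post-selection plasmids were Illumina-sequenced, three replicate libraries were pooled, and any variant with under 10 reads was removed. The libraries were Caulobacter ParB with four specificity codons randomised, selected in E. coli USO through a HIS3 reporter whose site is 19 bp from the promoter. Cells grew 48 hours at 37°C on M9 without histidine, with 0.1 mM IPTG and 5 mM 3-AT. Fitness is the log change in variant-to-wild-type read ratio, rescaled against cognate and non-cognate.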
For the variant PKSP, the “one-hybrid fitness for binding NBS DNA” value is at most 0.2.
For YCST, the “one-hybrid fitness for binding NBS DNA” value is at most 0.2.
Regarding IVLR, the “one-hybrid fitness for binding NBS DNA” value was at most 0.2.
Regarding APIC, the “one-hybrid fitness for binding NBS DNA” value is at most 0.2.
In the case of IQDW, the “one-hybrid fitness for binding NBS DNA” value was at most 0.2.
Take KVNV: the “one-hybrid fitness for binding NBS DNA” value was at most 0.2.
As to GAPV, the “one-hybrid fitness for binding NBS DNA” value is at most 0.2.
With NPPN, the “one-hybrid fitness for binding NBS DNA” value is at most 0.2.
In the case of STMP it was at most 0.2; in that of ISTI, at most 0.2.
In the case of HHPR it was at most 0.2; in that of HHRL, at most 0.2; in that of QLHI, at most 0.2.
For AYVN, the “one-hybrid fitness for binding NBS DNA” value was at most 0.2.
As for QDPD, the “one-hybrid fitness for binding NBS DNA” value is at most 0.2.
As for PAGY, the “one-hybrid fitness for binding NBS DNA” value is at most 0.2.
For RSDM, the “one-hybrid fitness for binding NBS DNA” value was at most 0.2.
For VDSR, the “one-hybrid fitness for binding NBS DNA” value is at most 0.2.
Turning to NIKC, the “one-hybrid fitness for binding NBS DNA” value was at most 0.2.
For the variant ATRC, the “one-hybrid fitness for binding NBS DNA” value is at most 0.2.
As to PCDC, the “one-hybrid fitness for binding NBS DNA” value is at most 0.2.
In the case of AMCT it was at most 0.2.
In the case of CPRT, the “one-hybrid fitness for binding NBS DNA” value is at most 0.2.
In the case of TPFG, the “one-hybrid fitness for binding NBS DNA” value was at most 0.2.
As for PAGT, the “one-hybrid fitness for binding NBS DNA” value was at most 0.2.
Regarding QIWK, the “one-hybrid fitness for binding NBS DNA” value is at most 0.2.
In the case of EVTF, the “one-hybrid fitness for binding NBS DNA” value is at most 0.2.
As for EKTC, the “one-hybrid fitness for binding NBS DNA” value was at most 0.2.
As to SLER, the “one-hybrid fitness for binding NBS DNA” value was at most 0.2.
For RCKE, the “one-hybrid fitness for binding NBS DNA” value is at most 0.2.
On to RSEY, for which the “one-hybrid fitness for binding NBS DNA” value is at most 0.2.
For the variant RCYE, the “one-hybrid fitness for binding NBS DNA” value was at most 0.2.
In the case of LQAQ, the “one-hybrid fitness for binding NBS DNA” value was at most 0.2.
In the case of NRSN, the “one-hybrid fitness for binding NBS DNA” value is at most 0.2.
AYAL: the “one-hybrid fitness for binding NBS DNA” value is at most 0.2.
On to PCTF, for which the “one-hybrid fitness for binding NBS DNA” value is at most 0.2.
In the case of RNGG it was at most 0.2; in that of QNQA, at most 0.2.
In the case of MASQ, the “one-hybrid fitness for binding NBS DNA” value is at most 0.2.
Regarding LFSS, the “one-hybrid fitness for binding NBS DNA” value is at most 0.2.
In the case of HLRS it was at most 0.2; in that of NLWR, at most 0.2.
In the case of LRCV, the “one-hybrid fitness for binding NBS DNA” value was at most 0.2.
For QTVG, the “one-hybrid fitness for binding NBS DNA” value is at most 0.2.
With RHNG, the “one-hybrid fitness for binding NBS DNA” value was at most 0.2.
For ESNG, the “one-hybrid fitness for binding NBS DNA” value was at most 0.2.
Take QTPV: the “one-hybrid fitness for binding NBS DNA” value was at most 0.2.
With HYAW, the “one-hybrid fitness for binding NBS DNA” value was at most 0.2.
Take HPGS: the “one-hybrid fitness for binding NBS DNA” value was at most 0.2.
EVSR: the “one-hybrid fitness for binding NBS DNA” value is at most 0.2.
For the variant SQLR, the “one-hybrid fitness for binding NBS DNA” value is at most 0.2.
ITNI: the “one-hybrid fitness for binding NBS DNA” value is at most 0.2.
Regarding TCLC, the “one-hybrid fitness for binding NBS DNA” value was at most 0.2.
CPDG: the “one-hybrid fitness for binding NBS DNA” value was at most 0.2.
For YIVF, the “one-hybrid fitness for binding NBS DNA” value is at most 0.2.
With TTVS, the “one-hybrid fitness for binding NBS DNA” value is at most 0.2.
For WRYS, the “one-hybrid fitness for binding NBS DNA” value was at most 0.2.
For the variant WVQR, the “one-hybrid fitness for binding NBS DNA” value is at most 0.2.
As for RPCD, the “one-hybrid fitness for binding NBS DNA” value was at most 0.2.
On to QDQT, for which the “one-hybrid fitness for binding NBS DNA” value is at most 0.2.
Regarding QMYR, the “one-hybrid fitness for binding NBS DNA” value was found to be 0.507.
On to NRTG, for which the “one-hybrid fitness for binding NBS DNA” value was at most 0.2.
As for GLQG, the “one-hybrid fitness for binding NBS DNA” value is at most 0.2.
For TAVR, the “one-hybrid fitness for binding NBS DNA” value was at most 0.2.
For the variant IVMG, the “one-hybrid fitness for binding NBS DNA” value was at most 0.2.
On to LGTH, for which the “one-hybrid fitness for binding NBS DNA” value was at most 0.2.
Turning to LVEQ, the “one-hybrid fitness for binding NBS DNA” value was at most 0.2.
For CGAH, the “one-hybrid fitness for binding NBS DNA” value was at most 0.2.
For NVWG, the “one-hybrid fitness for binding NBS DNA” value was at most 0.2.
In the case of QVMV, the “one-hybrid fitness for binding NBS DNA” value is at most 0.2.
In the case of SAHA it was at most 0.2; in that of SIIG, at most 0.2; in that of RKDY, at most 0.2.
Regarding DHCT, the “one-hybrid fitness for binding NBS DNA” value was at most 0.2.
With WTHQ, the “one-hybrid fitness for binding NBS DNA” value is at most 0.2.
In the case of QKCI it was at most 0.2; in that of IHDS, at most 0.2; in that of RVRW, at most 0.2.
On to HHAA, for which the “one-hybrid fitness for binding NBS DNA” value is at most 0.2.
On to MERS, for which the “one-hybrid fitness for binding NBS DNA” value is at most 0.2.
In the case of RFHS it was 0.275; in that of TPTK, at most 0.2.
For the variant WVGT, the “one-hybrid fitness for binding NBS DNA” value is at most 0.2.
Take PGSF: the “one-hybrid fitness for binding NBS DNA” value is at most 0.2.
With VESL, the “one-hybrid fitness for binding NBS DNA” value is at most 0.2.
Regarding ATDR, the “one-hybrid fitness for binding NBS DNA” value is at most 0.2.
Turning to IYPY, the “one-hybrid fitness for binding NBS DNA” value was at most 0.2.
For KQLR, the “one-hybrid fitness for binding NBS DNA” value was at most 0.2.
In the case of GCLF it was at most 0.2; in that of RCGN, at most 0.2.
In the case of VKRS it was at most 0.2.
Turning to RCPL, the “one-hybrid fitness for binding NBS DNA” value is at most 0.2.
With QTSH, the “one-hybrid fitness for binding NBS DNA” value was 0.321.
For NITE, the “one-hybrid fitness for binding NBS DNA” value was at most 0.2.
Regarding IQDR, the “one-hybrid fitness for binding NBS DNA” value is at most 0.2.
AKLH: the “one-hybrid fitness for binding NBS DNA” value is at most 0.2.
Consider HNTF, for which the “one-hybrid fitness for binding NBS DNA” value was at most 0.2.
For HLLP, the “one-hybrid fitness for binding NBS DNA” value was at most 0.2.
CAHC: the “one-hybrid fitness for binding NBS DNA” value was at most 0.2.
With WPTT, the “one-hybrid fitness for binding NBS DNA” value was at most 0.2.
In the case of RNTF, the “one-hybrid fitness for binding NBS DNA” value was at most 0.2.
Regarding HALW, the “one-hybrid fitness for binding NBS DNA” value was at most 0.2.
In the case of MLTN it was at most 0.2.
On to RWMC, for which the “one-hybrid fitness for binding NBS DNA” value is at most 0.2.
In the case of GVQT it was at most 0.2.
As for QEYR, the “one-hybrid fitness for binding NBS DNA” value is at most 0.2.
As to LTDS, the “one-hybrid fitness for binding NBS DNA” value is at most 0.2.
For TWLE, the “one-hybrid fitness for binding NBS DNA” value was at most 0.2.
In the case of QVVM it was at most 0.2; in that of SQYW, at most 0.2.
In the case of FDAS it was at most 0.2.
Consider VHHI, for which the “one-hybrid fitness for binding NBS DNA” value is at most 0.2.
Take PRVA: the “one-hybrid fitness for binding NBS DNA” value is at most 0.2.
Regarding YAHL, the “one-hybrid fitness for binding NBS DNA” value is at most 0.2.
For the variant TDQF, the “one-hybrid fitness for binding NBS DNA” value is at most 0.2.
QTNW: the “one-hybrid fitness for binding NBS DNA” value turned out to be 0.243.
Regarding NVRT, the “one-hybrid fitness for binding NBS DNA” value is at most 0.2.
For the variant KAAR, the “one-hybrid fitness for binding NBS DNA” value was at most 0.2.
Turning to KTSD, the “one-hybrid fitness for binding NBS DNA” value is at most 0.2.
In the case of DHKL it was at most 0.2.
Regarding CIPY, the “one-hybrid fitness for binding NBS DNA” value is at most 0.2.
In the case of MDRT it was at most 0.2; in that of ASVC, at most 0.2.
As for HIEG, the “one-hybrid fitness for binding NBS DNA” value is at most 0.2.
In the case of TIKG it was at most 0.2.
For DRPC, the “one-hybrid fitness for binding NBS DNA” value is at most 0.2.
Take PSSE: the “one-hybrid fitness for binding NBS DNA” value is at most 0.2.
In the case of VIPQ it was at most 0.2; in that of SLQD, at most 0.2.
Regarding WKFT, the “one-hybrid fitness for binding NBS DNA” value is at most 0.2.
Take TPVH: the “one-hybrid fitness for binding NBS DNA” value is at most 0.2.
In the case of WMHC, the “one-hybrid fitness for binding NBS DNA” value was at most 0.2.
Regarding YRRN, the “one-hybrid fitness for binding NBS DNA” value is at most 0.2.
Take GCDS: the “one-hybrid fitness for binding NBS DNA” value is at most 0.2.
In the case of LQMG it was at most 0.2.
For CYYY, the “one-hybrid fitness for binding NBS DNA” value is at most 0.2.
In the case of ATHR it was at most 0.2; in that of TPPN, at most 0.2; in that of QDFT, at most 0.2.
On to RGDS, for which the “one-hybrid fitness for binding NBS DNA” value is at most 0.2.
With GPSP, the “one-hybrid fitness for binding NBS DNA” value was at most 0.2.
As for IAST, the “one-hybrid fitness for binding NBS DNA” value is at most 0.2.
Consider IYKC, for which the “one-hybrid fitness for binding NBS DNA” value was at most 0.2.
Turning to RYWP, the “one-hybrid fitness for binding NBS DNA” value is at most 0.2.
Turning to MSHA, the “one-hybrid fitness for binding NBS DNA” value was at most 0.2.
In the case of AEAP it was at most 0.2.
Consider AIEI, for which the “one-hybrid fitness for binding NBS DNA” value is at most 0.2.
On to HWHT, for which the “one-hybrid fitness for binding NBS DNA” value is at most 0.2.
In the case of VWPT it was at most 0.2; in that of RYYN, at most 0.2.
For the variant VYDS, the “one-hybrid fitness for binding NBS DNA” value is at most 0.2.
For the variant FVVE, the “one-hybrid fitness for binding NBS DNA” value was at most 0.2.
For CWPS, the “one-hybrid fitness for binding NBS DNA” value was at most 0.2.
